{"source": "ChEMBL document CHEMBL5308541", "about": "“MAIP: An Open-Source Tool to Enrich High-Throughput Screening Output and Identify Novel, Druglike Molecules with Antimalarial Activity” (ACS Med Chem Lett, 2023)", "note": "The whole screen tested about 150,000 compounds, of which about 540 (0.36%) showed an effect of 50% or more. The list shows a part of the results.", "data": [{"test_system": "Plasmodium falciparum", "experiment": "Primary screen in NF54 nanoGlo assay, in single point, at 2uM, 72h; a lower Z score goes with more inhibition", "format": "functional, Erythrocyte", "details": "timepoint 72 hour", "units": {"% Inhibition": "%"}, "values": [{"smiles": "COc1ccc2nc(Nc3sc4c(c3-c3nc5ccccc5s3)CC[C@H](C)C4)sc2c1", "% Inhibition": -14, "Z score": 2.14}, {"smiles": "Cc1nc(N2CC3COCC(C3)C2)cc(C(F)(F)F)n1", "% Inhibition": 1, "Z score": -0.11}, {"smiles": "N[C@@H](CNc1nc2ccccc2[nH]1)C1CC1", "% Inhibition": -4, "Z score": 0.7}, {"smiles": "CN(C)C[C@H]1CCN(c2ncnc3cc[nH]c23)C1", "% Inhibition": 13, "Z score": -2.62}, {"smiles": "O=C(O)c1ccc2c(c1)OCCN(Cc1cnn3c1CCC3)C2", "% Inhibition": 4, "Z score": -0.58}, {"smiles": "Cc1ccnc(NCCNc2nc(C)nc3c2CCNCC3)c1", "% Inhibition": -2, "Z score": 0.33}, {"smiles": "CN(C)C(=O)CN1CCC(Nc2cnc3ccccc3n2)C(O)C1", "note": "(stereo not drawn)", "% Inhibition": -9, "Z score": 1.55}, {"smiles": "c1ccc(N2CC[C@H](N3CCN(c4nsc5ccccc45)CC3)C2)cc1", "% Inhibition": -1, "Z score": 0.15}, {"smiles": "CN1C(=O)C2CCC1CN(C(=O)CCN1Cc3ccccc3C1=O)C2", "note": "(stereo not drawn)", "% Inhibition": -9, "Z score": 1.73}, {"smiles": "O=C(Nc1ccccc1N1CCC(O)CC1)c1ccnc(OCC(F)F)c1", "% Inhibition": -7, "Z score": 1.37}, {"smiles": "COCc1noc(CCNC(=O)[C@@H]2CC3(CCNCC3)CN2)n1", "% Inhibition": -13, "Z score": 2.26}, {"smiles": "c1ccc2c(c1)CN(c1ncnc3[nH]ccc13)C[C@@H]1CCCN21", "% Inhibition": -19, "Z score": 2.95}, {"smiles": "O=C(NCc1ccnc2ccccc12)N1CC(O)C(N2CCOCC2)C1", "note": "(stereo not drawn)", "% Inhibition": -3, "Z score": 0.63}, {"smiles": "c1cnc(N[C@H]2CCN(CCOC3CCOCC3)C2)nc1", "% Inhibition": 9, "Z score": -1.93}, {"smiles": "CC1NCCCC1Nc1c(C#N)cnc2ccc(Cl)cc12", "note": "(stereo not drawn)", "% Inhibition": -19, "Z score": 2.89}, {"smiles": "Cc1ccc(N2CCC(N3CCC4(CCC(=O)N4C)CC3)CC2)cc1", "% Inhibition": -2, "Z score": 0.37}, {"smiles": "N#Cc1c[nH]c(C(=O)NCc2nncn2C2CCCCC2)c1", "% Inhibition": -2, "Z score": 0.49}, {"smiles": "NC(=O)c1cc2c(OC[C@@H](O)COC3CN(C(c4ccccc4)c4ccccc4)C3)cccc2[nH]1", "% Inhibition": -9, "Z score": 1.4}, {"smiles": "O=S1(=O)C[C@@H](c2ccccc2)CN1Cc1nnc2n1CCCC2", "% Inhibition": -8, "Z score": 1.67}, {"smiles": "CN1CCC(Oc2ccc(NC(=O)c3cc(-c4cccn4C)[nH]n3)cc2)CC1", "% Inhibition": -8, "Z score": 1.44}, {"smiles": "Oc1ccc(OC(F)(F)F)cc1-c1ccc2nccn2n1", "% Inhibition": 86, "Z score": -17.13}, {"smiles": "O=C(CCNC(=O)c1ccccc1F)Nc1ccc(Oc2nnn[nH]2)cc1", "% Inhibition": -12, "Z score": 1.76}, {"smiles": "COc1ccc([C@@H](O)CNCc2cnc(-c3ccccc3)s2)cc1", "% Inhibition": -8, "Z score": 1.53}, {"smiles": "COc1ccc(CN2CCc3c([nH]c4ccccc34)[C@H]2c2ccccc2F)cc1O", "% Inhibition": -6, "Z score": 1.06}, {"smiles": "CN(CC1(N2CCCCC2)CCCCC1)c1cc(N2CCC(O)CC2)ncn1", "% Inhibition": 0, "Z score": 0.07}, {"smiles": "CN1CC[C@H](N2CCC(NC(=O)c3ccc4ccncc4c3)CC2)C1=O", "% Inhibition": -5, "Z score": 0.91}, {"smiles": "CC(NS(C)(=O)=O)C(=O)N1CC2CCCC2C1", "note": "(stereo not drawn)", "% Inhibition": -10, "Z score": 2.1}, {"smiles": "COCC[C@H]1CCCCN1C(=O)c1cccc(-c2cnc3cccnn23)c1", "% Inhibition": -5, "Z score": 1.05}, {"smiles": "Cc1cnn(CCNCC(=O)NCC(C)(C)N2CCOCC2)c1", "% Inhibition": 1, "Z score": -0.11}, {"smiles": "CC(C)(C)c1cc(NCc2cc(O)c3ccccc3n2)ncn1", "% Inhibition": 7, "Z score": -1.4}, {"smiles": "C[C@@H](CN(C)CCO)NC1CC(C)(C)NC(C)(C)C1", "% Inhibition": -9, "Z score": 1.54}, {"smiles": "CNc1ccc(Nc2nn3cc(-c4cccnc4)nc3s2)cn1", "% Inhibition": 6, "Z score": -1.03}, {"smiles": "Fc1ccc2ncnc(N[C@H]3CCCN(CCN4CCOCC4)C3)c2c1", "% Inhibition": -6, "Z score": 1.32}, {"smiles": "COC1CN(c2ncc(Br)cn2)CC1O", "note": "(stereo not drawn)", "% Inhibition": -7, "Z score": 1.34}, {"smiles": "CCOc1cc(NC2CCN(c3ccnc4c3cnn4C)CC2)ncn1", "% Inhibition": -10, "Z score": 2.26}, {"smiles": "OCCNc1nc2ccccc2n1Cc1cc(-c2ccc(Cl)cc2)no1", "% Inhibition": -10, "Z score": 1.7}, {"smiles": "O=S(=O)(c1ccc2[nH]cnc2c1)N1CCC2(CCNCC2)C1", "% Inhibition": -9, "Z score": 1.32}, {"smiles": "CCN1CC(NS(=O)(=O)c2ccc3[nH]cnc3c2)C(OC)C1", "note": "(stereo not drawn)", "% Inhibition": -11, "Z score": 2.12}, {"smiles": "Cc1cnc(N)nc1N1CCN([C@H]2CCNC2)CC1", "% Inhibition": 2, "Z score": -0.4}, {"smiles": "Cn1nnc(-c2cccc(NC(=O)c3cc4c(Cl)cccc4[nH]3)c2)n1", "% Inhibition": 3, "Z score": -0.43}, {"smiles": "Cn1cc(CNc2ccc(OCC(F)(F)F)nc2)c(-c2ccc3c(c2)OCCCO3)n1", "% Inhibition": -3, "Z score": 0.53}, {"smiles": "CN(C(=O)c1cc(F)cc2cccnc12)c1cccc2ncccc12", "% Inhibition": -1, "Z score": 0.14}, {"smiles": "N#Cc1cccnc1NCc1cccc(C(=O)Nc2ccc(Oc3cccc(F)c3)nc2)c1", "% Inhibition": 5, "Z score": -0.97}, {"smiles": "N#Cc1ccc(N2CCC(Nc3ncnc4nc(N)ccc34)CC2)cc1", "% Inhibition": 8, "Z score": -1.45}, {"smiles": "O[C@H]1CCN(Cc2cccc(NCc3cn4ccnc4s3)c2)C1", "% Inhibition": 52, "Z score": -7.83}, {"smiles": "CN(Cc1n[nH]c2c1CCCC2)C1CCN(c2ccc(C(=O)NCCN3CCOCC3)cc2)CC1", "% Inhibition": -12, "Z score": 2.13}, {"smiles": "O=C(NC1CCN(C2CCCCC2)CC1)c1ccc(-c2cncnc2)cc1F", "% Inhibition": 1, "Z score": -0.09}, {"smiles": "O=C1CC[C@H](N2CCN(c3nccc(Oc4ccccc4)n3)CC2)CCN1", "% Inhibition": -1, "Z score": 0.22}, {"smiles": "CCn1cc(-c2cccc(C(=O)NC3CCN(C[C@H]4CCCO4)CC3)c2)cn1", "% Inhibition": 6, "Z score": -1.04}, {"smiles": "CN1CCN(CCCNC(=O)c2ccccc2Nc2cccc(C(F)(F)F)c2)CC1", "% Inhibition": 8, "Z score": -1.36}, {"smiles": "COc1ccc2cc3n(c2c1)CC(C)(C(=O)NCCCN1CC(C)CC(C)C1)N(Cc1ccccc1C)C3=O", "note": "(stereo not drawn)", "% Inhibition": 0, "Z score": -0.05}, {"smiles": "COC[C@H](NC(=O)Nc1ccncc1F)c1ccccc1", "% Inhibition": -8, "Z score": 1.39}, {"smiles": "CN1CCN(CC2CCN(Cc3cnc(-c4ccccc4)nc3)CC2)CC1", "% Inhibition": 10, "Z score": -1.49}, {"smiles": "Cc1ccccc1-c1c(-c2ccccc2)ncn1CCCN(CCO)CCO", "% Inhibition": -7, "Z score": 1.16}]}]}
